{"source": "the RNAGym collection of RNA variant scans (doi:10.7554/elife.90254)", "parents": {"B1": {"name": "LINE1-full (parent)", "chain": "UACGUAGGUGGUUUUCCCCUGAUAGUGCUAAGGGGGCCUGGAAGUUUGGACUGGGCAGAGCUCAACACAGCGUGGCAAAGUGGCUGUGGCUAGACUGCCUCUCUGGAUUCCUCGUCACUCAGCAGGGCAUCUCUGAGAGAAAUGCC"}}, "note": "Read counts are not given, so values of variants with three or more changes are uncertain.", "data": [{"variants_of": "B1", "assay": "self-cleavage, relative activity (ratio to wild type); higher = more cleavage; in vitro, sequencing; the parent is a self-cleaving ribozyme", "values": [{"variant": "UACGUAGGUGGUCUUCCCCUGAUAGUGCUAAGGGGGCCUGGGAGUUUGGACUGGGCAGAGCUCAACACAGCGUGGCAAAGUGGCUGUGGCUAGACUGCCUCUCUGGAUUCCUCGUCACUCAGCAGGGCAUCUCUGAGAUAAAUGCC", "self-cleavage": 1.26}, {"variant": "UACGUAGGUGGUCUUCCCCUGUUAGCGCUAAGGGGGCCUGGAAGUUUGGACUGGGCAGGGCACAACACAGCGUGGCAAAGUGGCUGUGGCUAGACUGCCUCUCUGGAUUCCUCGUCACUCAGCAGGGCAUCUCUGAGAGAAAUGCC", "self-cleavage": 0.19}, {"variant": "UACGUAGGUGGUCUUCCCCUGAUAGUGCUGAGGGGGCCUGGAAGUUUGGACUGGGCAGAGCUCAACACAGCGUGGCAAAGUGGCUGUGGCUAGACUGCCUCUCUGGAUUCCUCGUCACUCAGCAGGGCAUCUCUGAGAGAAACGCC", "self-cleavage": 0}, {"variant": "UACGUAGGUGGUCUUCCCCUGAUAGUGCUAAGGGGGCCUGGUAGUUUGGACUGGGCAGAGCUCAACACAGCGUGGCAAAGUGGCAGUGGCUAGACUGCCUCUCUGGAUUCCUCGUCACUCAGCAGGGCAUCUCUGAGAGAAAUGCC", "self-cleavage": 0.11}, {"variant": "UACGUAGGUGGUCUUCCCCUGAUAGUGCUAAGGGGGCCUGGAGGUUUGGGCUGGGCAGAGCUCAGCACAGCGUGGCAAAGUGGCUGUGGCUAGACUGCCUCUCUGGAUUCCUCGUCACUCAGCAGGGCAUCUCUGAGAGAAAUGCC", "self-cleavage": 0}, {"variant": "UACGUAGGUGGUCUUCCCCUGAUAGUGCUAAGGGGGCCUGGGAGUUCGGACUGGGCAGAGCUCAACACAGCGUGGCAAAGUGGCUGUGGUUAGACUGCCUCUCUGGAUUCCUCGUCACUCAGCAGGGCAUCUCUGAGAGAAAUGCC", "self-cleavage": 0.15}, {"variant": "UACGUAGGUGGUCUUCCCCUGAUAGUGCUGAGGGGGCCUGGAAGUUUGGACUGGACAGAGCUCAACACAGCGUGGCAAAGUGGCUGUGGCUAGACUGCCUCUCUGGAUUCCUCGUCACUCAGCAGGGCAUCUCUGAGAGAAAUGCC", "self-cleavage": 0.94}, {"variant": "UACGUAGGUGGUCUUCCCCUGGUAGUGCUAAGGGGGCCUGGAAGUUUGGACUUGGCAGAGCUCAACACAGCGUGGCAAAGUGGCUGUGGCUAGACUGCCUCUCUGGAUUCCUCGUCACUCAGCAGGCCAUCUCUGAGAGGAAUGCC", "self-cleavage": 1.02}, {"variant": "UACGUAGGUGGUCUUCCCCUGAUGGUGCUAAGGGGGCCUGGAAGAUUGGACUGGGCAGGGCUCAACACAGCGUGGCAAAGUGGCUGUGGCUAGACUGCCUCUCUGGAUUCCACGUCACUCAGCAGGGCAUCUCUGUGAGAAAUGCC", "self-cleavage": 0.22}, {"variant": "UACGUAGGUGGUCUUCCCCUGAUAGUGCUAAGGGGGCCUGGGAGUUUGGACUGGGCAGAGCUCAACACAGCGUGGCAAAGUGGCUGUGGCUAGACUGCCUCUCUGGAUUCCUCGUCACACAGCAGGGCAUCUCUGAGAGAAAUGCC", "self-cleavage": 1.16}, {"variant": "UACGUAGGUGGUCUUCCCCUGAUAGUGCUAAGGGGGCCUGGUAGUUUGGACUGGGCAGAGCUCAACACAGCGUGGCAAAGUGGCUGUGGCUGGACUGCCUCUCUGGAUUCCUCGUCACUCAGCAGGGCAACUCUGAGAGAAAUGCC", "self-cleavage": 0.04}, {"variant": "UACGUAGGUGGUCUUCCCCUGAUGGUGCUAAGGGGGCCUGGAAGUUUGGACUGGGCAGAGCUCAACACAGCGUGGCAAAGUGGCUGUGGCUAGACUGCCUCCCUGGAUUCCUCGUCGCUCAGCAGGGCAUCUCUGAGAGAAAUGCC", "self-cleavage": 0.92}, {"variant": "UACGUAGGUGGUCUUCCCCUGAUAGUGCUAAGGGGGCCUGGAUGUUUGGACUGGGCAGAGCUCAACACAGCGUGGCAAAGUGGCUGUGGCUAGACUGCCUCACUGGAUUCCUCGUCACUCAGCAGGGCAUCUCUGAGAGAAAUGCC", "self-cleavage": 1.08}, {"variant": "UACGUAGGUGGUCUUCCCCUGAUAGUGCUAAGGGGGCCUGGAGGUUUGGACUGGGCAGAGCCCAACACAGCUUGGCAAAGUGGCUGUGGCUAGACUGCCUCUCUGGAUUCCUCGUCACUCAGCAGGGCAUCUCUGAGAGAAAUGCC", "self-cleavage": 0.09}, {"variant": "UACGUAGGUGGUCUUCCCCUGAUAGUGCUAAGGGGGCCUGGGAGUUUGGACUGGGCGGAGCUCAACACAGCGUGGCAAAGUGGCUGUGGCUAGACUGCCUCUCUGGAUUCCUCGUCACUCAGCAGGGCAUCUCUGAGAGAAAUGCC", "self-cleavage": 0}, {"variant": "UACGUAGGUGGUCUUCCCCUGAUUGUGCUAAGGGGGCCUGGGAGUUUGGACUGGGCAGAGCUCGACACAGCGUGGCAAAGUGGCUGUGGCUAGACUGCCUCUCUGGAUUCCUCGUCACUCAGCAGGGCAUCUCUGAGAGAAAUGCC", "self-cleavage": 0}, {"variant": "UACGUAGGUGGUCUUCCCCUGAUAGUGCUGAGGGGGCCUGGAAGUUUGGACUGGGCAGAACUCAACACAGCGUGACAAAGUGGCUGUGGCUAGACUGCCUCUCUGGAUUCCUCGUCACUCAGCAGGGCAUCUCUGAGAGAAAUGCC", "self-cleavage": 0.28}, {"variant": "UACGUAGGUGGUCUUCCCCUGAUAGUGCUGAGGGGGCCUGGAAGCUUGGACUGGGCAGAGCUCAACACAGCGUGGCAAAGAGGCUGUGGCUAGACUGCCUCUCUGGAUUCCUCGUCACUCAGCAGGGCAUCUCUGAGAGAAAUGCC", "self-cleavage": 0.88}, {"variant": "UACGUAGGUGGUCUUCCCCUGAUGGCGCUAAGGGGGCCUGGAAGUUUGGACUGGGCAGAGCUCAACACAGCGUGGCAAAGCGACUGUGGCUAGACUGCCUCUCUGGAUUCCUCGUCACUCAGCAGGGCAUCUCUGAGAGAAAUGCC", "self-cleavage": 0.48}]}]}
